From PMC12136788
Some of the results follow.

T1: UNK ZnF1-3 (human, UniProt Q9C0B0 31-174)
T1 sequence: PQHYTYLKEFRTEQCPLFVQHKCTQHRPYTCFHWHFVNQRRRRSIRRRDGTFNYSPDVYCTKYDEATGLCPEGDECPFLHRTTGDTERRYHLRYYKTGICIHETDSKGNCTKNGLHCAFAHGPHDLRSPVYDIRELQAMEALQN

B1: chr1:36758251:36758252:+_ENSG00000054118_ENST00000354618|hu_hu|FALSE|FALSE (ssRNA)
RNA: GGGAGUUCUACAGUCCGACGAUCGUGUAUCUCUGGGCUUUUCUUGUUUUUGGCUGCCUCCUGCUCAGUUCCUCUCUUUAGGUAUUUAGUAAAGCGUUCAUGUAAUGUCAUUCCUGAGGACCCAAAGUGAUGCUCUUUAACAUGCAACAGAGGAUUGAGCAUCA
B2: 58329776_58329896_94_5pUTR_ENSMUSG00000027810_ENSMUST00000029387|mouse|control|control (ssRNA)
RNA: GGGAGUUCUACAGUCCGACGAUCAAGUCUGCGAGUCGGUGUUUCCGGCGCCGCCAGCCUCGGGGCCAAUCCACGUCUGGUUCCCGAGCGCGCACGCGCAGCUCUGGCUCCUCGUUUUCCGGAGCGGGGAAGAGCCUGGCUGCGCAACAGAGGAUUGAGCAUCA
B3: chr17:74307696:74307697:-_ENSG00000161542_ENST00000324684|hu_hu|FALSE|FALSE (ssRNA)
RNA: GGGAGUUCUACAGUCCGACGAUCGUUUCGGAAAAGGUAGGCCAUGGACUCUCCAUUGUGGAUUCUCCGAAUGGCUUCAGAAAGAAUCAAACUGAUAUCCACAGUCUUUAUCUUGGGACAUUGCAGCUUCUGAACCUCAUGAGGCAACAGAGGAUUGAGCAUCA
B4: 3117114_3117873_1036_CDS_ENSG00000197386_ENST00000355072|human|control|control (ssRNA)
RNA: GGGAGUUCUACAGUCCGACGAUCGGUGAGCAGCACGCCAAGAAUCAGCAGAGUGGAGUGUUCAUCCUCGACAGGAACGAGUAAGCCUAAGAGCACAUUUAGUAGCCAACUAUAGAAAUAUUGUGUCCUUCUUGAGUGCUGGCACAACAGAGGAUUGAGCAUCA
B5: 71096126_71096246_1001_CDS_ENSG00000114861_ENST00000475937|human|control|control (ssRNA)
RNA: GGGAGUUCUACAGUCCGACGAUCCCCGGGCUGAAUUGUCAGAAGGCCUUGGCGCUGCAAAGACAGGAGGUGCUGCUGCUGUAACUGCUGCAUCUGUAAAAGCUGCUGCUGAAAAGCCAACUGCUGGGUAGCCACCUGCUGUUGCAACAGAGGAUUGAGCAUCA
B6: chr7:54825262:54825263:-_ENSG00000132432_ENST00000352861|hu_hu|hu_hu_hu_mus_False|98_108 (ssRNA)
RNA: GGGAGUUCUACAGUCCGACGAUCCUGACUUGGCUCAACAAACUGCAGCAUUACCUGAUCCAUGUUUGUUGGAUGGCGGAUUGAGAGCGUAGAGACACGUAGCUCAGGAGAGAACCGAGCCCAACGGAACCGGAAGCUGGCAACCAACAGAGGAUUGAGCAUCA
B7: chr7:40134317:40134318:+_ENSG00000065883_ENST00000340829|hu_hu|FALSE|FALSE (ssRNA)
RNA: GGGAGUUCUACAGUCCGACGAUCGGAAGGGUCACUGCUGUUUGCCAGGACUGCAAUAGGACCAUGGCUAUAUUCAAAUCUAUGGUCCUUGUCUCCACUAAACAACAUGGGACCAGCAUUGAGGUAAAUGUCUCCAUAUCCAGCCAACAGAGGAUUGAGCAUCA
B8: chr2:156005782:156005783:-_ENSMUSG00000027620_ENSMUST00000109587|mus_mus|motif|central (ssRNA)
RNA: GGGAGUUCUACAGUCCGACGAUCGCGGUACCGCCCAACCCGAAUAUCGGGCCCCGAGGGCGUCUAGGCCCAAGCGAAUCGGAAAGAAACAAUGGGAUUAAAGGAGCCCGCGACGGAGAGCAGGGCAGCGGCUUCGGCAGCUCACAACAGAGGAUUGAGCAUCA
B9: chr7:141445308:141445309:+_ENSG00000106028_ENST00000265304|hu_hu|hu_hu_hu_mus_False|58_98 (ssRNA)
RNA: GGGAGUUCUACAGUCCGACGAUCUAUGAUUGUUGUUGCUUGUCGCCUCACAUUGUUUUUAUCCAUGUACUCGCCAUAGUCUAUUUUCCCUUCCACAAAUAUACGAGCCCCCUUUUUCACAUACUGAUAUGCCACAUCUCUGAGCAACAGAGGAUUGAGCAUCA
B10: chr1:180251892:180251893:+_ENSMUSG00000026500_ENSMUST00000027781|mus_mus|FALSE|FALSE (ssRNA)
RNA: GGGAGUUCUACAGUCCGACGAUCAUGAGCCAUAGAGUAUAGAUUCUCGAGCACAUGGAGUGUUCUCAACAUCUAAAAUACCUAGGAGCUUGAAGGGCUUUUUCUCCGUCUCGUGGGGCUCCGGGGCGGCCGCCAUGGGCACCACAACAGAGGAUUGAGCAUCA
B11: chr16:94690093:94690094:+_ENSMUSG00000040785_ENSMUST00000117648|mus_hu|mus_mus_mus_hu_True|1_1 (ssRNA)
RNA: GGGAGUUCUACAGUCCGACGAUCGGGCUGGGAUGACGGACACACAGCCUCGAUUCCAGGGGGAAAAAGUCUUAGUCGAUACUAAUUAAAAAGUGUUAAUGAUUUUUGAAAAUCAGAUUACAUCUAUAAAAGAUGAAAGCACUUCAACAGAGGAUUGAGCAUCA
B12: chrX:17854524:17854525:+_ENSMUSG00000037369_ENSMUST00000044484|mus_mus|motif|central (ssRNA)
RNA: GGGAGUUCUACAGUCCGACGAUCUCGAGAAUUACUCUCAUUAGUGACAAAAAGCAGAUCAAAAACCUCCACCUCACAAAUACGGCAAUAAUGAGCUGGUUCUUCUUUUGUCCGCCCGUGCCAUAUGAUCUCUUUUCCUGCAGCCAACAGAGGAUUGAGCAUCA
B13: chr1:163112212:163112213:-_ENSG00000143248_ENST00000313961|hu_hu|hu_hu_hu_mus_False|8_98 (ssRNA)
RNA: GGGAGUUCUACAGUCCGACGAUCUUUUAUUAUCAGUAAGCAUGAGUUACAUACUAGGCAAAGUAUUGGAUACAAUAAUCAGGAAACAAACACUAUUGGUCCAGAAUUUAAAACUUUAUGAGCGAAGGCUUACAAAUGGACUUACAACAGAGGAUUGAGCAUCA
B14: chr4:57314706:57314707:+_ENSG00000128050_ENST00000264221|hu_mus|hu_hu_hu_mus_True|78_78 (ssRNA)
RNA: GGGAGUUCUACAGUCCGACGAUCCAGAAUUUCAAAAAUAGCUUGUGUGGCAUGACUCAUGAUAUCCACUUCAGUCUGCCCUAUAACAAGGCCAGCAAAACAGAAUUUUGCAGCAAUGAGUUGCUCCUCAGACCACUGUGGAUCCAACAGAGGAUUGAGCAUCA

Target: T1, UNK ZnF1-3
Experiment: nsRBNS (natural sequence RNA bind-n-seq); RBNS binding buffer (assumed for nsRBNS): 25 mM Tris pH 7.5, 150 mM KCl, 3 mM MgCl2, 0.01% Triton X-100, 500 ug/ml BSA, 20 U/ml SUPERase-In, 4 C; UNK is unkempt and MSI1 is Musashi-1; names of the RNAs are library labels; protein concentration not given here; high values mean tight binding

Row | Binder | binding signal [enrichment R]
1 | B1 | 0.822
2 | B2 | 0.264
3 | B3 | 0.538
4 | B4 | 1.61
5 | B5 | 1.18
6 | B6 | 1.14
7 | B7 | 1.54
8 | B8 | 1.12
9 | B9 | 0.518
10 | B10 | 1.46
11 | B11 | 0.667
12 | B12 | 0.956
13 | B13 | 0.988
14 | B14 | 1.03
